From PubChem BioAssay (NCI)
“And” between values parts separate entries of the source, which are not always exact repeats. Equal values may be shown once.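 The compound was tested at five concentrations on cells cultured in 96-well plates, with a 48-hour exposure period. GI50 is the concentration that inhibits growth by half. TGI denotes the concentration required for complete inhibition of growth.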

Test system: NCI-H322M lung
Assay: growth of human tumour cells (NCI), 48 h

For COc1ccc2cc(-c3c(-c4ccncc4)nc(-c4ccc(S(C)(=O)=O)cc4C)n3C)ccc2c1, the GI50 was 15.6 µM and the TGI was > 25 µM.

Work on CCC[n+]1cc2cc(OC)c(OC)cc2c2c1-c1cc3c(cc1C2)OCO3 yielded a GI50 of 10.6 µM and a TGI of 39.6 µM.

With O=c1cccc(C2CC(CO)C3CCCCN3C2)[nH]1 (stereo not given) the TGI was > 100 µM.

For N.N.N.N.O=C([O-])C(Cl)Cl.O=C([O-])C(Cl)Cl.[Co+3].[O-][Cl+3]([O-])([O-])[O-], the GI50 was > 100 µM and the TGI was > 100 µM.

With C=C1N(C=O)C(C)(C)N(O)C1(C)C the TGI was > 100 µM.

With COc1cc2ncnc(Nc3ccc(F)c(Cl)c3)c2cc1NC(=O)/C=C/CN1CCCCC1 the GI50 was < 0.01 µM and 0.00449 µM and the TGI was 1.94 µM and 2.63 µM.

CNCCn1c(=O)c2cc(OC)c(OC)cc2c2ccc3cc4c(cc3c21)OCO4 showed a GI50 of 0.169 µM and a TGI of 1.4 µM.

CSC(SC)=C(C(=O)O)P(=O)(O)O was tested, and the TGI was > 100 µM.

In the case of CCCCSc1nsc(N(C(=O)c2ccccc2)C(=O)c2ccccc2)n1, the TGI is reported as > 100 µM.

In the case of CCn1c2ccc(O)cc2c2c(C)c3c[n+](C)ccc3c(C)c21, the GI50 is reported as 2.67 µM and the TGI is reported as 84.2 µM.

Cc1[nH]c(=O)nc(NCCNCCO)c1C(=O)Nc1cccc2cc3ccccc3cc12 was tested, and the TGI was > 100 µM.

For NCCCCNc1ccc2c(=O)[nH][nH]c(=O)c2c1, the TGI was > 100 µM.

For CCP(=O)(OC)C1=CCN(C(=O)OCC[Si](C)(C)C)CC1 (stereo not given), the TGI was > 100 µM.

For Cc1cc2c(O)c(c1)CN(CC(=O)O)Cc1cc(C)cc(c1O)CN(CC(=O)O)Cc1cc(C)cc(c1O)CN(CC(=O)O)C2, the TGI was > 100 µM.

With CCOC(=O)/C=C1\CCCC12OCCO2 the TGI was > 100 µM.

For O=C1C(c2ccccc2)=[N+]([O-])c2ccccc21, the TGI was 39.7 µM.

For CCCOc1ccc2nc(NC(=O)OC)[nH]c2c1, the GI50 was > 20 µM and the TGI was > 100 µM.

For CC1C(=O)OCC2=CCN3CCC(OC(=O)C(C)C1(C)O)C23 (stereo not given), the TGI was > 100 µM.

O=S(=O)(O)c1ccc(N=Nc2ccc(N=Nc3ccc(/C=C/c4ccc(N=[N+]([O-])c5ccc(/C=C/c6ccc(N=Nc7ccc(N=Nc8ccc(S(=O)(=O)O)cc8)cc7)cc6S(=O)(=O)O)c(S(=O)(=O)O)c5)cc4S(=O)(=O)O)c(S(=O)(=O)O)c3)cc2)cc1 was tested, and the TGI was > 100 µM.

CC(C)c1cccc(C(C)C)c1NC(=O)/C(CC(=O)CC(c1ccccc1)c1c(O)c2ccccc2oc1=O)=N/O (stereo not given) was tested, and the TGI was > 100 µM.

Cc1cc(C)c(C(=O)c2no[n+]([O-])c2C(=O)c2c(C)cc(C)c(Br)c2C)c(C)c1Br gave a TGI of 29.7 µM.

For COc1cc(/C=C2\C(=O)Nc3ccc(N(C)C)cc32)cc(OC)c1OC, the GI50 was 3.47 µM and the TGI was > 30.4 µM.

Work on CCCCCCCCCCCCCCCCCC1=NCCN1C(=O)OCCO yielded a GI50 of 3.32 µM and a TGI of 13.1 µM.

Work on O=C(O)c1ccc2c(c1)CCCC(c1ccc(Cl)cc1Cl)=C2c1ccc(O[C@H]2CCN(CCCF)C2)cc1 yielded a GI50 of 15.1 µM and a TGI of 30 µM.

Compound OC1(c2ccccc2)OC(C#Cc2ccccc2)(c2ccccc2)c2ccccc21 (stereo not given) has a TGI of 3.52 µM.

With CC(CCC(=O)O)C(=O)O (stereo not given) the TGI was > 100 µM.

For CC(C)N1CC2CC(CN(C(=O)c3ccccc3)C2)C1, the TGI was > 100 µM.

For Cc1nc2sccn2c1-c1csc(Nc2cccc(Cl)c2C)n1, the GI50 was 11.2 µM and the TGI was 63.7 µM.

With O=C1C=CC=C/C1=C1\N=C(c2ccccc2OCC(=O)c2ccccc2)SS1 the TGI was > 100 µM.

C[C@]12CCCC(=O)C1(O)C[C@H](C(=O)O)CC2 (stereo not given in full) was tested, and the TGI was > 100 µM.

With CC[O-].CC[O-].O=S(=O)([O-])c1ccc([O-])c2ncccc12.O=S(=O)([O-])c1ccc([O-])c2ncccc12.[Ti+4] the GI50 was 27 µM and the TGI was > 100 µM.

For Cc1cc(S(=O)(=O)NC#N)c(S/C(=N\Nc2ccc([N+](=O)[O-])cc2)c2ccc(Cl)cc2)cc1Cl, the GI50 was 22.5 µM and the TGI was > 100 µM.

For N#CCCN(CCC#N)c1ccc(C(Sc2ccccc2)C(NC(=O)c2cc([N+](=O)[O-])ccc2Cl)C(=O)Sc2ccccc2)cc1 (stereo not given), the GI50 was 4.05 µM and the TGI was 20.3 µM.

COc1ccc(/C=c2\s/c(=C3/SC(=S)N(c4ccccc4)C3=O)n(-c3ccccc3)c2=O)cc1 was tested, and the TGI was > 100 µM.

COc1cc2c(=O)n(CCN)c3c4cc5c(cc4ccc3c2cc1OC)OCO5 was tested, and the GI50 was 1.06 µM and the TGI was 2.6 µM.

Work on Cc1cc2c(cc1C)N(C(=O)CCl)CCN2C(=O)CCl yielded a GI50 of 1.88 µM and a TGI of 3.6 µM.

With COc1ccc(Nc2nc(N)c(C(=O)c3c[nH]c4ccccc34)s2)cc1 the TGI was > 100 µM.

With NC(=O)c1csc(C2(O)COC(CO)C2O)n1 (stereo not given) the TGI was > 100 µM.

Cc1[nH]nc(C(=O)n2nc(N)c3ccccc32)c1[N+](=O)[O-] was tested, and the GI50 was > 100 µM and the TGI was > 100 µM.

Work on CC(C)C(CC(=O)OCC(CO)OC(=O)CC(C(C)C)C(C)C)C(C)C (stereo not given) yielded a TGI of 27.8 µM.

CCOC(=O)/C=C/C1=C(c2cccs2)c2ccccc2CC1 was tested, and the GI50 was 38.9 µM and the TGI was > 100 µM.

With COC(=O)Cc1ccc2c(cnn2-c2ccccc2)c1OC the TGI was > 10 µM.

For COc1ccc(Cn2cc3c(c2)-c2oncc2CC3)cc1, the GI50 was 5.84 µM and the TGI was > 100 µM.

With Cc1ccc(-c2cc(-c3ccco3)c(C#N)c(=O)n2C2OC(OC(=O)c3ccccc3)C(OC(=O)c3ccccc3)C2OC(=O)c2ccccc2)cc1 (stereo not given) the TGI was > 100 µM.

In the case of CCOC(=O)c1s/c(=N\Nc2nc3ccccc3cc2C2OCCO2)n(Cc2ccccc2)c1C, the TGI is reported as > 100 µM.

CCC1=C(C(C)=O)[C@@H]2CCCCC[C@@H](C(=O)OC)C2C1=O (stereo not given in full) was tested, and the TGI was > 100 µM.

With COc1ccc(-c2ccc(-c3ccc(C(=N)N)cn3)o2)cc1 the GI50 was 6 µM and the TGI was 19.3 µM.

In the case of CCn1c(-c2nonc2N)nc2c(C#CC(C)(C)O)nc(OCCNC)cc21, the GI50 is reported as 9.51 µM and the TGI is reported as > 25 µM.

COc1ccc(/C=C2\CCCC(C(NO)c3ccc(OC)cc3)C2=NO)cc1 (stereo not given) was tested, and the TGI was > 100 µM.

For COc1ccc(-c2oc3c(OC)c(OC)c(OC)c(OC)c3c(=O)c2OC)cc1OC, the TGI was > 100 µM.

Compound CCCCN(CCCC)c1c([N+](=O)[O-])c(=O)nc2ccccn12 has a TGI of 67.6 µM.

With N#C/C(C(=O)Nc1ccc(Cl)cc1)=C(/N)N1CCCC1 the TGI was > 100 µM.

In the case of O=c1cc(-c2ccncc2)[nH]c2cc3c(cc12)OCO3, the TGI is reported as > 100 µM.

With CN1CC[C@]2(C)c3ccc(O)cc3CC3CCCC1C32C (stereo not given in full) the TGI was > 100 µM.

For CC(C)(C)OC(=O)NC(Cc1ccccc1)NC(=O)NC(=O)OCc1ccccc1 (stereo not given), the TGI was > 100 µM.

Work on Cc1sc2nc3c4ccccc4c(NCCCN(C)C)nn3c(=O)c2c1C yielded a GI50 of 13 µM and a TGI of 26.8 µM.

In the case of CN1C(=O)N(C)C2C1NN=c1s/c(=C\c3ccc(F)cc3)c(=O)n12 (stereo not given), the GI50 is reported as 5.59 µM and the TGI is reported as > 100 µM.

With O=[N+]([O-])c1cnn(C2=CNc3ccccc3N=C2)c1 the TGI was > 100 µM.

In the case of O=C1NC2CCCCC2N=C1CC(=O)c1ccc(Br)cc1 (stereo not given), the TGI is reported as > 100 µM.

In the case of COC(=O)c1ccccc1NC(=O)C(=O)NNC(=O)c1ccncc1, the TGI is reported as > 100 µM.

For CC(=O)OCC1OC(n2c(-c3ccccc3)c(N=Nc3ccccc3)c(C)c(C#N)c2=S)C(OC(C)=O)C(OC(C)=O)C1OC(C)=O (stereo not given), the TGI was > 100 µM.

With CS(=O)(=O)Nc1ccc2c(c1)N(S(C)(=O)=O)CC2CCl (stereo not given) the TGI was > 100 µM.

With c1cncc(CC2(c3cc4ccccc4[nH]3)OCCO2)c1 the TGI was > 100 µM.

For C/C=C/C=C/C=C/C=C/C(=O)O, the TGI was > 100 µM.

For CC(C)C(=O)C(C)(C)CCc1ccccn1, the TGI was > 100 µM.

With COc1ccc(/C=C\c2cc(OC)c(O[Si](C)(C)C(C)(C)C)c(OC)c2)cc1 the TGI was > 100 µM.

Work on C=C1C(=O)O[C@H]2[C@H]1CC/C(COC(=O)c1cc3cc(Cl)ccc3[nH]1)=C\CC[C@@]1(C)O[C@@H]21 yielded a GI50 of 4 µM and a TGI of 16.4 µM.

In the case of O=C1NC(=S)S/C1=C(/C=C(\CC(=O)c1ccccc1)c1ccc(Cl)cc1)c1ccccc1, the GI50 is reported as 34.6 µM and the TGI is reported as > 100 µM.

With COc1cc(C(=O)Oc2ccc3c(c2)OCO3)cc(OC)c1OC the TGI was > 100 µM.

For CCN(CC)C(=S)SC, the TGI was > 100 µM.
